{"source": "paper PMC4336329", "about": "(PLoS ONE, 2015)", "note": "In all, about 310,000 compounds went through this assay and about 14,000 (4.5%) showed an effect of 50% or more. Effects have a minus sign here. The list shows a part of the results.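 Note: peak tail current of the secondary pulse compared with the same well before compound.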"}
{"target": "human ether-à-go-go-related gene (hERG) potassium channel (human, UniProt Q12809)", "sequence (Q12809 whole entry, looked up)": "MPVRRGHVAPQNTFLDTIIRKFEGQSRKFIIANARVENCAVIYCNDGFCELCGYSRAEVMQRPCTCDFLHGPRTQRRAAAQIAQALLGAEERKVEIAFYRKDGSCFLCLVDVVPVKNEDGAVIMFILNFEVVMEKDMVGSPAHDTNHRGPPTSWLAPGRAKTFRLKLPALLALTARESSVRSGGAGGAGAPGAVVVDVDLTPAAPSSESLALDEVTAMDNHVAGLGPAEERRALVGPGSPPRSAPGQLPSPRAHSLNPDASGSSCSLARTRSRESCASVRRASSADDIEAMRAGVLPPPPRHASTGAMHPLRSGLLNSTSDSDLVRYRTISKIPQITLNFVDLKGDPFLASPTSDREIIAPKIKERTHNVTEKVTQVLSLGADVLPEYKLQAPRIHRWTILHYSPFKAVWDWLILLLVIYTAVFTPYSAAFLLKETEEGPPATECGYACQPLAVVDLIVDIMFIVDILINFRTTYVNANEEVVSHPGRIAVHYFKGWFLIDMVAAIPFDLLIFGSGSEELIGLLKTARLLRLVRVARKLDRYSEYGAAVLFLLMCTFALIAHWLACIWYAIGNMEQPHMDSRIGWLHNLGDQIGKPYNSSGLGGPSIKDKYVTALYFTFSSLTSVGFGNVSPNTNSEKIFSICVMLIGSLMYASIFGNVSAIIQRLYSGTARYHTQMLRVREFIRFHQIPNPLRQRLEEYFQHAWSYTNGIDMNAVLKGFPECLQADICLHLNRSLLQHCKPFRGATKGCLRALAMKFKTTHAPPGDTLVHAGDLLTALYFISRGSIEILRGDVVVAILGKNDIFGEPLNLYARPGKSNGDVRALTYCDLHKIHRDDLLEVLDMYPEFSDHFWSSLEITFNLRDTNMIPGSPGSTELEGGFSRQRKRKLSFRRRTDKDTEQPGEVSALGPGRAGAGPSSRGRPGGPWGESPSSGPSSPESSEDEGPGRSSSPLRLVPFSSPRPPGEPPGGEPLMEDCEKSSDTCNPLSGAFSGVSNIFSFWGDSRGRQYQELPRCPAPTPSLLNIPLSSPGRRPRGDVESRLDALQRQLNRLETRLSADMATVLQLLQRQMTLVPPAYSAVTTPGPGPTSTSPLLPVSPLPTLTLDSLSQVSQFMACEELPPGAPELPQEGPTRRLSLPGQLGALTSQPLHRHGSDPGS", "experiment": "primary screen, population patch clamp on CHO cells stably expressing hERG", "units": {"hERG current change (%, negative = inhibition) at 10uM": "%"}}
{"smiles": "COc1ccc(-c2noc(Cc3cccs3)n2)cc1", "hERG current change (%, negative = inhibition) at 10uM": -3.62}
{"smiles": "C/C(=N\\O)C(=O)NCCCn1ccnc1", "hERG current change (%, negative = inhibition) at 10uM": 17.2}
{"smiles": "CCOC(=O)CNC(=O)c1cc2c(=O)[nH]c3ccc(C)cc3c2s1", "hERG current change (%, negative = inhibition) at 10uM": 9.18}
{"smiles": "CN(C)/C=N/C(=S)Nc1cc(Cl)cc(Cl)c1", "hERG current change (%, negative = inhibition) at 10uM": 27.2}
{"smiles": "Cc1cccc(C)c1NC(=O)CS(=O)CC(=O)N1CCN(c2ccccc2)CC1", "note": "(stereo not shown)", "hERG current change (%, negative = inhibition) at 10uM": 15.8}
{"smiles": "Cc1ccccc1CS(=O)(=O)Cc1ccc(C(=O)N2CCC3(CC2)OCCO3)o1", "hERG current change (%, negative = inhibition) at 10uM": 8.72}
{"smiles": "CN(CC(=O)Nc1cc([N+](=O)[O-])ccc1Cl)Cc1ccc(Br)cc1", "hERG current change (%, negative = inhibition) at 10uM": -17}
{"smiles": "CCCCCCCCCCCCC/C=C/[C@@H](O)[C@@H](N)CO", "hERG current change (%, negative = inhibition) at 10uM": 14.2}
{"smiles": "O/N=C\\c1ccc(-c2ccccc2)o1", "hERG current change (%, negative = inhibition) at 10uM": -4.28}
{"smiles": "O=C(C1CCC(Cn2c(=S)[nH]c3ccccc3c2=O)CC1)N1CCN(c2ccccc2)CC1", "note": "(stereo not shown)", "hERG current change (%, negative = inhibition) at 10uM": 11.7}
{"smiles": "COc1ccc(CCNC(=O)CCCCn2c(=O)[nH]c3ccccc3c2=O)cc1OC", "hERG current change (%, negative = inhibition) at 10uM": 12.7}
{"smiles": "CCOc1ccc(/C(O)=C2/C(=O)C(=O)N(CCOCCO)C2c2ccccn2)cc1", "note": "(stereo not shown)", "hERG current change (%, negative = inhibition) at 10uM": -4.07}
{"smiles": "Cc1nn2c(-c3ccc(Cl)cc3)nnc2s1", "hERG current change (%, negative = inhibition) at 10uM": -29.6}
{"smiles": "C=C1CCN([C@@H](C)C(=O)OCc2ccc(C)cc2)S(=O)(=O)c2ccccc21", "hERG current change (%, negative = inhibition) at 10uM": -15.5}
{"smiles": "Clc1ccc(-n2cccc2)cn1", "hERG current change (%, negative = inhibition) at 10uM": 5.35}
{"smiles": "CCO[C@H]1OC(C(=O)N2CCN(Cc3ccc4c(c3)OCO4)CC2)=C[C@@H](c2ccc(C(F)(F)F)cc2)[C@@H]1CCCO", "hERG current change (%, negative = inhibition) at 10uM": -24.7}
{"smiles": "O=C(Cc1cccs1)Nc1nc2c(s1)CCCC2", "hERG current change (%, negative = inhibition) at 10uM": -6.72}
{"smiles": "Cc1ccc(C)c(NC(=O)c2ccc(N(C)S(C)(=O)=O)cc2)c1", "hERG current change (%, negative = inhibition) at 10uM": -5.18}
{"smiles": "Cc1cc(C)cc(NC(=S)N2CCN(c3ccccn3)CC2)c1", "hERG current change (%, negative = inhibition) at 10uM": -1.07}
{"smiles": "Cc1nc(NC(=O)CSc2nc3cccnc3n2C2CCCCC2)sc1C", "hERG current change (%, negative = inhibition) at 10uM": 11.6}
{"smiles": "O=C1CC(c2ccccc2)CC(O)=C1C=NCc1ccco1", "note": "(stereo not shown)", "hERG current change (%, negative = inhibition) at 10uM": -15.3}
{"smiles": "Cc1ccc(S(=O)(=O)N(C)C)cc1NC(=O)CCc1ccccc1", "hERG current change (%, negative = inhibition) at 10uM": -26.3}
{"smiles": "C=CCn1c(=O)c2c(nc(-n3nc(C)cc3C)n2C)n(C)c1=O", "hERG current change (%, negative = inhibition) at 10uM": 22}
{"smiles": "Cn1c(=O)[nH]c(=O)c2c1nc(NCCCO)n2CCOc1ccccc1", "hERG current change (%, negative = inhibition) at 10uM": -38}
{"smiles": "O=C(Cn1ccc(C(F)(F)F)n1)N/N=C/c1ccc2c(c1)OCO2", "hERG current change (%, negative = inhibition) at 10uM": -4.87}
